# Out of some 280,000 compounds screened, about 100 (0.036%) were called active. Inconclusive means that the source gave no clear call. Such entries were picked first, then a sample of the others. Calls follow the shape of the dose curve; as a rule, active = well fitted inhibition curve with a large enough effect in the signal ratio, with a control signal flat (not every such curve was filed as active); inconclusive = small, poorly fitted or top-dose-only effect, or effect the other way, or a change in a side signal; inactive = no such curve, though single readings can be large or run the other way; the % refers to the signal ratio. Where the call is inconclusive, the potency comes from a doubtful curve fit. “Side channel” marks fits to a control or component signal instead of the main read-out.
# Target: Muscleblind-like protein 1 (Homo sapiens) (UniProt Q9NR56)
# Chain of UniProt Q9NR56 (Q9NR56 whole entry, looked up): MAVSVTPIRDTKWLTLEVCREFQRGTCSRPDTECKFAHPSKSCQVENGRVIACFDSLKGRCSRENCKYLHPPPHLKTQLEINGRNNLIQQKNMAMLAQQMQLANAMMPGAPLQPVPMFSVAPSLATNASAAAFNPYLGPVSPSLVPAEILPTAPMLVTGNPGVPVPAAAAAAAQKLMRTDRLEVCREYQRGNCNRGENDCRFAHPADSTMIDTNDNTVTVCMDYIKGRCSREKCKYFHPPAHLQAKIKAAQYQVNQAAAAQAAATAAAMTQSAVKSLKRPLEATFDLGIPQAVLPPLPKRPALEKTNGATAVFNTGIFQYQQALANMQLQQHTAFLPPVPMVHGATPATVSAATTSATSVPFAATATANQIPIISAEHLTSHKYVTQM
# Assay: qHTS Assay for Inhibitors of MBNL1-poly(CUG) RNA binding
# Conditions: TR-FRET MBNL1-His/biotin-(CUG)12 binding, 665/545 ratio; activity change, negative = inhibition: at 57.5 µM (top of the series)
# Procedure, shortened: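 Compound titration spanned 92 nM–58 uM against the MBNL1-His/biotin-(CUG)12 complex. After 60 min at room temperature with 5 nM streptavidin-XL665 and 0.055 ng/ul terbium anti-His, ratiometric 665/545 nm emission (Ex 340 nm) normalized to controls.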
# % is scaled to controls: 0 for no effect and ±100 for the full control effect; potency is read from the fitted curve at half-maximal effect; tags tell the direction and shape of the fitted curve or compound fluorescence and quenching.
SMILES,Potency,"activity change, negative = inhibition"
Cc1ccc2[nH]c3c(=O)n(CC(=O)NCc4ccco4)ncc3c2c1,inactive,
CCOC(=O)C1CCN(C(=O)C2CCN(S(=O)(=O)N3CCCC3)CC2)CC1,"inconclusive: 100 µM [inhibitor, single point]",
Cc1cc(C)n(-c2nc3ccccc3n3c(C)nnc23)n1,"inconclusive: 35.5 µM [quencher, side channel, single point]",
Cc1ccc(-c2c(=O)n(O)c3ccccc3[n+]2[O-])cc1,"inconclusive: 28.2 µM [quencher, side channel, single point]",
COc1ccc(OC)c(S(=O)(=O)NCCCn2ccnc2)c1,inactive,
C[n+]1ccc(/C=N/Nc2nc(Cl)c(C#N)c(Cl)c2Cl)cc1,"inconclusive: 10 µM [quencher, side channel, partial curve]",
C/C(=N\Nc1ccc([N+](=O)[O-])cc1)c1ccco1,"inconclusive: 8.91 µM [quencher, side channel, partial curve]",
CN1CCN(C2=NC(=O)/C(=C/c3ccccc3OS(=O)(=O)c3ccccc3)S2)CC1,"inconclusive: 15.8 µM [quencher, side channel, partial curve]",
C=CCn1c(SCc2ccccc2C#N)nnc1-c1cc(Br)ccc1O,inactive,
COCC(=O)N(Cc1ccc(OC)cc1)Cc1nc2ccccc2c(=O)[nH]1,inactive,
O=C(c1ccccc1)c1nn(-c2ccccc2)c2nnc(Cc3ccccc3)c(=O)n12,"inconclusive: 10 µM [quencher, side channel, single point]",
O=C(c1ccccc1)c1cc([N+](=O)[O-])ccc1N1CCOCC1,,inconclusive: 26.1% [phenotype inactive]
Cc1[nH]c2c(Br)cccc2c1[C@H]1[C@@H](CC#N)C1(C)C,inactive,
COc1ccccc1CNC(=O)CN(c1cccc([N+](=O)[O-])c1)S(C)(=O)=O,"inconclusive: 28.2 µM [quencher, side channel, partial curve]",
CCOc1ncccc1C(=O)OCc1ccc(C(=O)OC)cc1,"inconclusive: 10 µM [fluorescent, side channel, partial curve]",
Cn1c2ccccc2c(=O)c2c(=O)n(Cc3ccco3)c(-c3ccc(Cl)cc3Cl)nc21,"inconclusive: 25.1 µM [fluorescent, side channel, partial curve]",
CCC(=O)Nc1cc(SCCO)cc([N+](=O)[O-])c1,"inconclusive: 12.6 µM [quencher, side channel, partial curve]",
Cc1sc2ncnc(NCC(C)(C)N3CCOCC3)c2c1C,"inconclusive: 22.4 µM [quencher, side channel, partial curve]",
CCOC(=O)C1(C)/C(=N/Nc2ccccc2OC)C(=O)C(=O)N1c1ccccc1 (stereo not drawn),"inconclusive: 35.5 µM [quencher, side channel, single point]",

SMILES,Potency,"activity change, negative = inhibition"
Nc1nnc(SCC(=O)c2ccc3ccccc3c2)s1,"inconclusive: 14.1 µM [quencher, partial curve]",
CCCN(CC1CC1)C(=O)COC(=O)c1ccc(CNS(=O)(=O)c2ccc(F)c(Cl)c2)cc1,"inconclusive: 31.6 µM [fluorescent, side channel, partial curve, poor fit]",
CC(C)(C)c1ccc(OCc2ccc(C(=O)N/N=C/c3ccc(O)c(O)c3)cc2)cc1,inactive,
CCOC(=O)COn1c(=O)c(-c2ccco2)[n+]([O-])c2ccccc21,"inconclusive: 20 µM [quencher, side channel, partial curve]",
c1ccc2c(c1)Cn1nc(Cc3nc4c(s3)CCCC4)nc1-2,"inconclusive: 39.8 µM [quencher, side channel, single point]",
Cc1ccc(C(=O)N/N=C/c2ccc([N+](=O)[O-])s2)cc1,"inconclusive: 3.98 µM [quencher, side channel, full curve]",
COc1cccc(/C=N/NC(=O)CSc2nnc(C)n2-c2ccccc2)c1OC,inactive,
O=C(CCl)N(CCCNC(=O)C(F)(F)F)c1ccc([N+](=O)[O-])cc1,"inconclusive: 31.6 µM [quencher, single point]",
COc1ccc(/C=N/NC(=O)c2ccccc2OC)cc1COc1ccc(C)cc1,inactive,
NC(=S)N/N=C/c1ccc([N+](=O)[O-])cc1,"inconclusive: 39.8 µM [quencher, single point]",
CCOC(=O)C1=C(O)/C(=C/c2ccc(OCC(=O)O)c(OCC)c2)SC1=Nc1ccc(C)cc1,"inconclusive: 20 µM [quencher, side channel, single point]",
O=C(NCc1ccccn1)C(=O)NCC1OCCN1S(=O)(=O)c1ccc([N+](=O)[O-])cc1 (stereo not drawn),"inconclusive: 11.2 µM [quencher, partial curve]",
COc1cccc(=O)c2c(C)n(C)c(C)c12,"inconclusive: 39.8 µM [quencher, side channel, single point]",
CC(C)n1nc(C(=O)OCn2nnc3ccccc3c2=O)c2ccccc2c1=O,"inconclusive: 10 µM [fluorescent, side channel, partial curve]",
Cc1ccc(OC(=S)Nc2ccc(O)cc2)cc1,"inconclusive: 6.31 µM [quencher, side channel, single point]",
O=C(Nc1nc2nc(-c3ccccc3)cc(-c3ccccc3)n2n1)c1ccco1,"inconclusive: 3.16 µM [quencher, side channel, full curve]",
COc1ccc(/C=C/C2=NC(=C\N(C)C)/C(=O)O2)cc1,"inconclusive: 8.91 µM [quencher, side channel, partial curve]",
Cc1ccc(C)c2c(N)c3c(nc12)CCCCC3 (tested in a mixture with another compound),"inconclusive: 126 µM [inhibitor, partial curve]",
CC(/C=N/n1c(-c2cccnc2)n[nH]c1=S)=C\c1ccco1,"inconclusive: 35.5 µM [quencher, side channel, single point]",

# — PubChem BioAssay AID2675 (National Center for Advancing Translational Sciences (NCATS), 2010)
